Laboratory results taken from PubChem BioAssay AID686979 (National Center for Advancing Translational Sciences (NCATS), 2013).
Several values for one entry are separate records, joined by “and”; a condition that tells them apart may be missing. Equal values may be shown once. About 50,000 (12%) of roughly 420,000 compounds were called active. The shares of active, inactive and inconclusive entries below differ from those in the screen. Calls come from the whole dose curve; as a rule, active = well fitted inhibition curve with a large enough effect; inconclusive = small, poorly fitted or top-dose-only effect; inactive = flat fitted curve, though single readings scatter. No potency is given beside an inconclusive call; the fits are too rough.

assay: qHTS for Inhibitors of human tyrosyl-DNA phosphodiesterase 1 (TDP1): qHTS in cells in presence of CPT; details: chicken DT40 Tdp1-/-;hTDP1 cells + 20 nM CPT, ATP luminescence, 48 h; activity change, negative = growth inhibition: at 46.2 µM (top of the series) unless noted; note: nearly all actives have a fitted effect of over 55% in size
In short: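 Cell growth measured by CellTiter-Glo luminescence after a minimum 48 h, 37 C compound exposure with 20 nM CPT in Tdp1-knockout DT40 cells stably expressing hTDP1, seeded 400/well; qHTS titration format.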
% is set by controls: 0 for no effect and ±100 for the full control effect; potency is the fitted concentration of half-maximal effect; tags give direction and shape of the fitted curve.

Row | Structure (SMILES) | Potency | activity change, negative = growth inhibition
1 | CN1CCN(NC(=O)c2cc(-c3ccc(Cl)s3)nc3ccccc23)CC1 | inconclusive [inhibitor, partial curve] | 
2 | Cc1cc(C)cc(NC(=O)NCCc2c(C)nn(C)c2C)c1 | inactive | 
3 | COc1ccc(N=C2SCC(=O)N2CCc2ccc(OC)c(OC)c2)cc1 | inconclusive [inhibitor, single point] | 
4 | Cc1ccc(NC(=O)C(Cc2c[nH]c3ccccc23)NC(=O)OC(C)(C)C)c(C)c1 (stereo not given) | inconclusive [inhibitor, single point] | 
5 | CCCN1CCN(C(=O)c2ccc(S(=O)(=O)N(C)c3ccccc3OC)cc2)CC1 |  | inconclusive: -31.1% [inhibitor]
6 | CCc1ccc(C(=O)c2cn(CC(=O)Nc3ccc4c(c3)OCO4)c3ccc(CC)cc3c2=O)cc1 | inactive | 
7 | CCc1ccc(C(O)c2ncc(-c3cccc4ccccc34)[nH]2)cc1 (stereo not given) | inconclusive [inhibitor, single point] | 
8 | CCOC(=O)c1oc2ccccc2c1CN1CC(C)OC(C)C1 (stereo not given) | inactive | 
9 | COc1ccc(S(=O)(=O)N(C)C[C@H]2Oc3ccc(NC(=O)Cc4ccccc4)cc3C(=O)N([C@H](C)CO)C[C@@H]2C)cc1 | inconclusive [inhibitor, single point] | 
10 | O=C(Cc1coc2ccc3ccccc3c12)NCc1ccccc1 | inconclusive [inhibitor, single point] | 
11 | CCOC(=O)C1=C(C)N=c2s/c(=C/c3cccc([N+](=O)[O-])c3O)c(=O)n2C1c1ccccc1 (stereo not given) | active: 13 µM | 
12 | CCc1ccc(C(=O)c2cn(CC(=O)Nc3ccc(Cl)cc3)c3cc4c(cc3c2=O)OCO4)cc1 | active: 14.6 µM | 
13 | N/C(=N\OC(=O)c1cc(-c2ccccc2)nc2ccccc12)c1ccncc1 |  | inconclusive: -31.7% [inhibitor]
14 | CN(C)c1ccc(P(=O)(OCc2ccccc2)C(O)c2ccc(Cl)cc2)cc1 (stereo not given) | inconclusive [inhibitor, single point] | 
15 | CC(=O)N1CCCc2cc(S(=O)(=O)N3CCCC(C(=O)N4CCN(c5cccc(Cl)c5)CC4)C3)ccc21 (stereo not given) | active: 2.31 µM and active: 8.2 µM | 
16 | O=S1(=O)NC(CC2=CCCCC2)C2CCCCC2O1 (stereo not given) | active: 7.31 µM | 
17 | O=C1CC(=Nc2ccc([N+](=O)[O-])cc2)NN1c1c(Cl)cc(Cl)cc1Cl | inconclusive [inhibitor, single point] | 
18 | CS(=O)(=O)c1cccc(NC(=O)C2CC2)c1 | inactive | 
19 | Cc1ccc(NC(=O)c2ccc3nsnc3c2)c(C)c1 | inconclusive [inhibitor, single point] | 
20 | Cc1cc2c(n1-c1ccc(C(=O)NCCc3ccc(Cl)cc3)cc1)CCCC2 | inconclusive [inhibitor, single point] | 
21 | Cc1cc(C)c2c(n1)sc1c(N3CCCCC3)ncnc12 | inconclusive [inhibitor, partial curve] | 
22 | CCC(Cn1nnc2ccccc2c1=O)NC(=O)Nc1cc(C)cc(C)c1 (stereo not given) | inactive | 
23 | CCOC(=O)N1CCN(C(=O)c2nn(-c3ccc(C)cc3)c(=O)c3c2c2ccccc2n3C)CC1 | inconclusive [inhibitor, single point] | 
24 | O=C(OCc1ccccc1)N1CCC2CC1c1cc(N3CCN(S(=O)(=O)c4cc(Cl)cc(Cl)c4)CC3)ccc12 (stereo not given) | inconclusive [inhibitor, single point] | 

Row | Structure (SMILES) | Potency | activity change, negative = growth inhibition
25 | CS(=O)(=O)Nc1ccccc1C(=O)OCC(=O)N1CCC(c2ccccc2)=N1 | inconclusive [inhibitor, single point] | 
26 | COc1cccc(CN2CC(C(=O)NC3CCC3)CCC2=O)c1 (stereo not given) | inactive | 
27 | CN(CC(=O)Nc1cccc(F)c1)C(=O)C1CC(=O)N(Cc2ccccc2)C1 (stereo not given) | inactive | 
28 | O=C(CSc1nnc(-c2cccs2)o1)OC1CCCCC1 |  | inconclusive: -33.3% [inhibitor]
29 | CC[C@]12c3[nH]c4cc(-c5ccco5)ccc4c3CCN1C(=O)[C@@H](CC(=O)NC/C=C(\C)CCC=C(C)C)C[C@@H]2C(=O)N1CCN(C(=O)C2CC2)CC1 | inconclusive [inhibitor, single point] | 
30 | Cc1ccc2nccc(C(=O)N3CCCC(N4CCN(c5ccc(F)cc5)CC4)C3)c2c1 (stereo not given) | inconclusive [inhibitor, single point] | 
31 | CCN(CC)c1ccc2nc3ccccc3[n+](CC)c2c1 | active: 5.17 µM | 
32 | CC(C)OC(=O)c1ccc(NC(=O)c2ccco2)cc1 | active: 18.4 µM | 
33 | O=C(c1cc(-c2ccc(F)cc2)nc2ccccc12)N1CCC1 | inconclusive [inhibitor, single point] | 
34 | Cc1ccc(S(=O)(=O)n2nc(C)c(S(=O)(=O)N3CCCCCC3)c2C)cc1 | inactive | 
35 | Cc1nc(Nc2ccc(O)cc2)c2c3c(sc2n1)CCCC3 | inconclusive [inhibitor, single point] | 
36 | Oc1ccc(C[C@@H]2CNCCN2CCc2cccc3ccccc23)cc1 | active: 14.6 µM | 
37 | Cc1ccccc1OCc1ccc(C(=O)N2CCOCC2)o1 | inactive | 
38 | COc1ccc(N2CCN(c3oc(Cc4cccc5ccccc45)nc3C#N)CC2)cc1 | inconclusive [inhibitor, partial curve] | 
39 | CCCCNc1c(-c2ccc(OC)c(SC(C)CC)c2)nc2cnccn12 (stereo not given) | inconclusive [inhibitor, single point] | 
40 | CC(=O)Nc1ccc(S(=O)(=O)N2CCCC3CCCCC32)cc1 (stereo not given) | inconclusive [inhibitor, single point] | 
41 | O=C(CSCc1nc2c(nnn2Cc2ccc(F)cc2)c(=O)[nH]1)Nc1cccc(C(F)(F)F)c1 | inactive | 
42 | COc1ccc(CCNS(=O)(=O)c2cccc3cccnc23)cc1OC | inactive | 
43 | CCCCC1(O)CC(C(F)(F)F)=NN1C(=O)COc1ccccc1 (stereo not given) |  | inconclusive: -31.6% [inhibitor]
44 | Cc1cccc(NC(=O)CN2CCN(C(=O)CN3C(=O)NC4(CC(C)CC(C)(C)C4)C3=O)CC2)c1C (stereo not given) | active: 20.6 µM | 
45 | FC(F)(F)c1ccccc1Cc1c(-c2cccc(Br)c2)nc2ccc(Cl)cn12 | inconclusive [inhibitor, single point] | 
46 | CCC1=NN2C(=N)/C(=C\c3cccn3-c3c(C)cccc3C)C(=O)N=C2S1 | inconclusive [inhibitor, full curve] | 
47 | Cc1ccc(-n2nnnc2SCc2nc3sc(C)c(C)c3c(=O)[nH]2)cc1 | inconclusive [inhibitor, single point] | 
48 | Cc1ccc(S(=O)(=O)NCc2ccc(C(=O)N3CCc4ccccc4C3)cc2)cc1 | inconclusive [inhibitor, single point] | 

Row | Structure (SMILES) | Potency | activity change, negative = growth inhibition
49 | Cc1ccc(C(=O)NNC(=O)CSc2nnc3ccccn23)cc1 | inactive | 
50 | COc1ccc(C2C(C(=O)Nc3ccccc3)=C(C)Nc3c(C(=O)Nc4ccccc4)cnn32)cc1 (stereo not given) | inconclusive [inhibitor, single point] | 
51 | O=C(NCc1ccccc1)C1=C[C@H](C2CC2)C[C@H](OCc2ccc(CO)cc2)O1 | inconclusive [inhibitor, partial curve] | 
52 | Cc1onc(-c2ccccc2)c1C(=O)OCC(=O)NC(C)c1ccc(Cl)cc1 (stereo not given) | inconclusive [inhibitor, single point] | 
53 | Cc1ccccc1CNC(=O)c1csc([C@@H]2O[C@H](CO)[C@@H](O)[C@H]2O)n1 | inconclusive [inhibitor, single point] | 
54 | CCC(=O)c1cn([C@@H](CCC(OC)OC)CC(=O)OC(C)(C)C)cc1CC | inactive | 
55 | Cc1ccc2nc(N3CCN(C)CC3)c(C#N)cc2c1 | inactive | 
56 | Cc1c(OCC(=O)N2C[C@H]3C[C@@H](C2)c2cccc(=O)n2C3)ccc2c3c(c(=O)oc12)CCC3 | inconclusive [inhibitor, single point] | 
57 | Cc1ccc(S(=O)(=O)N2CCCOC2CNC(=O)C(=O)NC2CCCCC2)cc1 (stereo not given) | inactive | 
58 | N#CC1=C(N)OC2=C(C(=O)CCC2)C1c1ccccc1 (stereo not given) | inactive | 
59 | CS(=O)(=O)N1CCc2cc(C(=O)N3CCN(c4cccc(Cl)c4)CC3)ccc21 | active: 16.4 µM | 
60 | Oc1ccc(/C=C/c2cnccn2)cc1 | inconclusive [inhibitor, single point] | 
61 | C[C@H]1CN[C@H](CCO)/C1=C\c1ccccc1 | inactive | 
62 | CCOc1ccccc1NC(=O)c1c(NC(=O)COc2ccc(Cl)cc2)sc2c1CCCCC2 | inactive | 
63 | COc1ccccc1/C=C1\SC(=S)N(NS(=O)(=O)c2ccc(C)cc2)C1=O | inactive | 
64 | COc1cc(NC(=O)c2[nH]c(C)c(C(C)=O)c2C)cc(OC)c1OC | inactive | 
65 | Nc1c(C(=O)CSc2nnnn2-c2ccc(O)cc2)c(=O)[nH]c(=O)n1C1CC1 | inconclusive [inhibitor, single point] | 
66 | Cc1ccc(OCC(=O)Nc2ccccc2-c2ccccc2)cc1 | inconclusive [inhibitor, partial curve, poor fit] | 
67 | Cc1ccc(N2C(=O)C(NC(=O)c3ccccc3)(C(F)(F)F)C3=C2CC(C)(C)CC3=O)cc1 (stereo not given) | inactive | 
68 | CCCn1c(=O)c2ccccc2n2c(SCCOc3ccc(C)cc3)nnc12 | inconclusive [inhibitor, partial curve] | 
69 | COc1cccc(Nc2ncc3nc(CCc4ccccc4)c(=O)n(C[C@H]4CCCO4)c3n2)c1 | inactive | 
70 | CCN(CC)S(=O)(=O)c1ccc(N2CCCCC2)c(NC(=O)/C(C#N)=C/c2ccc(OC)cc2)c1 | inconclusive [inhibitor, single point] | 
